Measurements as given in PubChem BioAssay AID488969 (Vanderbilt High Throughput Screening Facility, 2010).
Whole data set: some 110,000 compounds, median “z-score” near -0.1, cut for the highest 2% near 2. The list shows a part of the results.

The compounds below were run against Metabotropic glutamate receptor 8 (Rattus norvegicus) (UniProt P70579) (assay: mGluR8 Gi/Go-coupled signaling modulation – cell-based, rat, thallium flux, HTS, primary screen (AID 488969)). Settings: HEK293 rat mGluR8, GIRK (G protein-gated inwardly rectifying potassium channel) thallium flux, FluoZin2; at 10 µM; stronger effect = higher value; submaximal glutamate (EC20) added with thallium.
Chain of UniProt P70579 (P70579 whole entry, looked up): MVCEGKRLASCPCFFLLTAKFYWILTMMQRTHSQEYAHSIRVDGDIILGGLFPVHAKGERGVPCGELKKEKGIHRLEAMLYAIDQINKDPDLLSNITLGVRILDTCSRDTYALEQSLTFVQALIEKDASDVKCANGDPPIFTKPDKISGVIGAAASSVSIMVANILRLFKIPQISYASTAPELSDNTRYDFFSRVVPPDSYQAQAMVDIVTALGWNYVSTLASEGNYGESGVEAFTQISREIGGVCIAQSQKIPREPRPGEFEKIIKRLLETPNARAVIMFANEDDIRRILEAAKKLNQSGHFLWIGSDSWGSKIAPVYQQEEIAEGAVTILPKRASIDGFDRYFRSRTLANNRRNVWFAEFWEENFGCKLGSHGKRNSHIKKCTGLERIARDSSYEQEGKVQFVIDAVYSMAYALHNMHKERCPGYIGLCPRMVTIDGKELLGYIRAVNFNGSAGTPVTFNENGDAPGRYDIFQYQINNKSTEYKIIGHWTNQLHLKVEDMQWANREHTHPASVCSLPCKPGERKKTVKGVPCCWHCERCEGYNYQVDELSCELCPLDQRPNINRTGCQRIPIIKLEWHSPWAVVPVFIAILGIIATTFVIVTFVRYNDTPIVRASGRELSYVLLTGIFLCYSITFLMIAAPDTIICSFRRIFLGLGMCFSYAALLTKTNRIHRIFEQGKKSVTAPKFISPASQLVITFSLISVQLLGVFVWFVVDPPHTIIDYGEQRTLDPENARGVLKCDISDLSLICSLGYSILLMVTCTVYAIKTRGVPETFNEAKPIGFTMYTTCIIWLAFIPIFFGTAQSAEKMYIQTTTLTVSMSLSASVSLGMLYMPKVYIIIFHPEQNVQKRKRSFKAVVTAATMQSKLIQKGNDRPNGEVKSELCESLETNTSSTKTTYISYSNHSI

SMILES | z-score
Cn1cc(C(=O)c2ccc(Cl)cc2Cl)cc1C(=O)N/N=C(\N)COc1ccc(Cl)cc1Cl | 0.13
NC(N)=N/N=C/c1ccc(OCc2ccc(Cl)cc2Cl)cc1 | 0.0763
Cc1cc(C)c(/C=N/n2c(C)cc(C)c(C#N)c2=O)c(C)c1 | -0.219
Cc1ccc(NC(=O)c2c(C)noc2C)cc1 | -0.163
NC(=O)c1c(NC(=O)c2cccnc2Cl)sc2c1CCCC2 | -0.396
c1ccc(OCCCc2nc(-c3ccccn3)no2)cc1 | -0.423
CC(C)OC(=O)CCNc1n[nH]c(=O)[nH]c1=O | 0.028
CCOc1ccc2c(C)cc(=O)oc2c1OCC | 0.743
CCOC(=O)c1cc2sccc2n1CC(=O)Nc1ccc(OC)cc1 | -0.165
Cc1onc(-c2c(Cl)cccc2Cl)c1C(=O)NCCc1ccc(S(N)(=O)=O)cc1 | -0.481
N#Cc1cccc(-n2nnnc2-c2ccc3c(c2)OCO3)c1 | -0.154
COC(=O)Cc1ccc(NC(=S)NCc2ccccc2Cl)cc1 | -0.159
CCN1CCN(C(=S)c2ccc(Cl)cc2)CC1 | -0.0353
CC1=C(C(=O)OCC2CCCO2)C(c2ccccc2OC(C)C)C2=C(CC(c3ccco3)CC2=O)N1 (centres undefined) | -0.12
O=C(CN1CCN(Cc2ccccc2Cl)C1=O)N1CCCCCC1 | -0.349
CCc1nnc(NC(=O)C2CCCN2C(=O)Nc2ccccc2OC)s1 (centres undefined) | -0.336
CCC(=O)c1ccc(N2CCCCCC2)c(F)c1 | -0.499
Cc1cccc(OCCn2c(=O)sc3ccccc32)c1 | -0.343
O=c1c(F)cn(C2CCCO2)c(=O)n1Cc1ccccc1F (centres undefined) | -0.118
CCOC(=O)C(NS(=O)(=O)c1ccc(C)cc1)(C(F)(F)F)P(=O)(OCC(C)C)OCC(C)C (centres undefined) | -0.0646
CCCOc1c(OC)cc(Cl)cc1C1NC(=O)NC(C)=C1C(=O)NCc1ccccc1 (centres undefined) | -0.431
COc1ccccc1C(=O)N1CCN(S(=O)(=O)Cc2ccccc2)CC1 | 0.154
Cc1cccc(OCC(=O)Nc2ccccc2C(F)(F)F)c1 | 0.0733

SMILES | z-score
Cc1c(C(=O)NN)nc2ccccn12 | -0.145
O=C(CCOc1ccccc1)NCc1ccccc1 | 0.171
O=C(CCc1ccc(Oc2cc([N+](=O)[O-])cc([N+](=O)[O-])c2)cc1)N1CCCCC1 | -0.235
CCN(C(=O)CN1CCCCC1)C1(C)C(=O)c2ccccc2C1=O | -0.119
O=C(Cc1cccc(C(F)(F)F)c1)NCc1ccc(Cl)cc1Cl | -0.218
COc1ccc(-n2c(Cc3cc(=O)[nH]c(=O)[nH]3)nnc2SCC(=O)Nc2ccccc2)cc1 | -0.295
Cc1cc(C)c2c(n1)nn1c(N3CCN(c4ccccc4)CC3)cc(C)nc21 | -1.2
CCCc1cc(C(=O)N/N=C/c2ccc(C)o2)c2ccccc2n1 | -0.00973
CCCCCCSc1nsc(N)n1 | -0.0195
COC(=O)c1sc(S(=O)(=O)N2CCN(c3ccccc3)CC2)c(C(=O)OC)c1C | 0.537
COc1cc(CN2CC(C)CC(C)C2)cc([N+](=O)[O-])c1O (centres undefined) | 0.0599
CCCN(CCC)c1nc2ccccc2n2c(C)nnc12 | -2.51
O=S(=O)(c1ccc2ccccc2c1)N1CCN(C2CCN(Cc3ccccc3)CC2)CC1 | 0.282
COc1ccc(-n2c(C)nc3cc(C(=O)NCc4ccc5c(c4)OCO5)ccc32)cc1 | -0.347
O=C(Nc1ccncc1)C1CC1c1ccccc1 (centres undefined) | -0.0243
CC(C)COc1ccc(C(=O)CCN2CCCCC2)cc1 | -0.18
CCc1nc2ccc(F)cc2c(C(=O)NC2CCCCC2C)c1C (centres undefined) | 0.0814
C=CCn1c(-c2ccoc2C)n[nH]c1=S | -0.182
CN(C)CC(O)COc1cc2ccccc2cc1C(=O)N1CCCCC1 (centres undefined) | 0.233
Cc1cc(C)cc(NC2=CC(=O)CC(c3ccco3)C2)c1 (centres undefined) | 0.39
N#C/C(=C\c1ccccc1)C(=O)NC(=O)Oc1ccccc1 | -0.263
Cc1ccc(Cl)cc1NC(=O)CSC(N)=O | 0.476
CCS(=O)(=O)Nc1ccc(C2=NN(C(=S)Nc3ccccc3)C(c3ccco3)C2)cc1 (centres undefined) | -0.107

SMILES | z-score
C1CN(CC23CC4CC(CC(C4)C2)C3)CCO1 | -0.225
COc1ccc(CNc2ccc3cn[nH]c3c2)c(OC)c1OC | -0.128
CC(=O)c1c(C)[nH]c(C(=O)OCC(=O)C(C)(C)C)c1C | -0.364
COc1cccc(N=C2C(=O)N3CCCc4cccc2c43)c1 | -0.13
CCOc1ccc(NC(=O)c2nccnc2CO)cc1 | -0.103
CCOC(=O)c1c(C)nc2sc(C(=O)Nc3ccc(OC)cc3)c(N)c2c1-c1ccc(OC)cc1 | 0.136
COc1ccc(/C=N/NC(=O)CNC(=O)c2ccc3c(c2)OCCO3)cc1OC | -0.198
O=C(N/N=C/c1cccs1)c1cc(-c2ccc3ccccc3c2)n[nH]1 | -0.0227
Cc1ccc(-c2noc(CN(C(=O)C(c3ccccc3)c3ccccc3)C(C)C)n2)cc1 | -0.159
O=C(N1CCNCC1)N1CCOCC1 | 0.0355
FC(F)(F)c1cccc(N2CCc3cn[nH]c32)c1 | -0.459
CCOC(=O)C1CCCN(S(=O)(=O)c2cn(C)c(=O)n(C)c2=O)C1 (centres undefined) | 0.476
CNc1nc(C)c(C#N)c(-c2ccccc2)c1C(C)=O | -0.525
COc1cccc(-c2nc(-c3ccccc3)[nH]c(=O)c2C#N)c1 | -0.663
CC(C)(Oc1ccc(Cl)cc1)C(=O)N(Cc1ccccc1)c1ccccn1 | 1.1
CN1C(=O)c2cccc3c(S(=O)(=O)Nc4ccccn4)ccc1c23 | 0.126
CCC(c1nnnn1C(C)(C)C)N1CCN(c2cc(Cl)ccc2C)CC1 (centres undefined) | -0.203
CCc1cc2c(SCC(=O)c3ccc(Cl)s3)ncnc2s1 | -0.124
CC1CC(C)CN(C(=O)C2CCCN(S(=O)(=O)c3cccc4nonc34)C2)C1 (centres undefined) | -0.994
O=S(=O)(Nc1cccc2c1CCCC2)c1cccc(C(F)(F)F)c1 | -0.417
O=C(CSCc1ccccc1)N1CCN(c2ccc(F)cc2)CC1 | -0.36
CCCNS(=O)(=O)c1ccc(OCC(=O)Nc2ccccc2F)cc1 | -0.0555
CCOC(=O)C1CCN(S(=O)(=O)c2cccc(-c3csc(C)n3)c2)CC1 | -0.358

SMILES | z-score
c1ccc(Cn2c(-c3cccs3)nc3nc4ccccc4nc32)cc1 | 1.11
CCOc1c(C#N)c(C#N)c2nc(C)cc(C)n12 | 0.00345
O=C(CSc1ncn(-c2ccccc2)n1)NCc1ccccc1 | -0.242
Cc1nnc(SCCn2c(N3CCCCCC3)nc3c2c(=O)[nH]c(=O)n3C)s1 | 0.0833
CCSC1=C(C#N)C(c2ccccc2Cl)C(C(=O)c2cccs2)C(O)(C(F)(F)F)N1 (centres undefined) | -0.464
Cc1ccc2c(c1Br)/C(=N/N1C(=O)c3ccccc3C1=O)C(=O)N2 | -0.999
Cn1c(=O)[nH]c(=O)c2c1nc(N(CCO)Cc1ccccc1)n2CCCc1ccccc1 | -0.178
CC(=O)c1ccc(NC2c3ncccc3C(=O)N2Cc2ccc(F)cc2)cc1 (centres undefined) | -0.0325
O=c1oc2ccccc2c2nccnc12 | -0.322
Cc1ccccc1Cn1cc(NC(=O)c2nc3ncccn3n2)cn1 | 2.77
COc1cc(OC)c(C2=NOC(C(=O)Nc3cc(C)nn3-c3ccccc3)C2)cc1Cl (centres undefined) | -0.258
CCCCN(C(=O)Cn1nnc2ccccc21)C(C(=O)NCc1ccco1)c1ccncc1 (centres undefined) | 0.147
Cc1ccc(SCC(=O)Nc2ccc(-c3nc4ccccc4[nH]3)cc2)cc1 | -0.486
O=C(c1cccs1)N1CCN(Cc2nc3ccccc3c(=O)[nH]2)CC1 | -0.258
CCN(CC)C(=O)c1cnn(-c2ccccc2)c1NC(=O)c1cccc(F)c1 | 0.0315
O=C(Nn1cnc2ccccc2c1=O)c1ccccc1Cl | 0.134
CCc1ccccc1NC(=O)CSc1ncn[nH]1 | -0.0941
CCOc1ccc(/C=C(\C#N)C(=O)Nc2cccnc2)cc1 | -0.416
COc1ccc(C(CCNC(C)c2ccccc2)c2ccc(F)cc2)cc1 (centres undefined) | 1.71
Cc1cc(N2CCOCC2)nc(-c2ccccc2O)n1 | -0.358
O=C(Cn1c(=O)oc2cc(S(=O)(=O)N3CCCC3)ccc21)N1CCN(C2CCCCC2)CC1 | -0.245
O=C(COc1ccccc1Br)NCc1ccco1 | 0.149
Cc1ccc(NC(=S)N2CCC(c3nc4ccccc4s3)CC2)cc1C | -0.482

SMILES | z-score
CCSC1=N/C(=C/c2ccsc2)C(=O)N1c1ccccc1 | -0.016
Cc1c(NC(=O)c2cccc(NC(=O)c3ccco3)c2)cccc1C(=O)O | -0.0668
Cc1occc1C(=O)N/N=C/c1cnn(C)c1C | -0.5
C=CCNC(=S)Nc1cccc(NC(=S)NCC=C)c1 | -0.329
CC1CCCCC1NC(=O)COc1ccc(-n2cnnn2)cc1 (centres undefined) | 0.0113
CC1CCCN(c2nc3ccsc3c(=O)s2)C1 (centres undefined) | 0.174
CCN(CC(=O)NCCc1ccc(S(N)(=O)=O)cc1)Cc1nc2cc(OC)c(OC)cc2c(=O)[nH]1 | -0.0839
Cn1c(SCC(=O)N2CCCC2)nnc1-c1ccc(S(=O)(=O)N2CCCC2)cc1 | -0.428
Cc1ccc(C(=O)OCC(=O)Nc2sccc2C(N)=O)cc1NC(=O)c1ccco1 | -0.747
CCCc1ccc(-c2cc(C(=O)NC3=NCCS3)c3ccccc3n2)cc1 | -0.175
O=S(=O)(c1ccc(-c2csc(-c3cccnc3)n2)cc1)N1CCCC1 | -0.311
CCOC(=O)c1[nH]c(C)c(CN(Cc2ccco2)C(=O)C(F)(F)F)c1C | 0.0968
Cc1ccc(C(=O)Oc2coc(CSc3nnc(NC(=O)C4CC4)s3)cc2=O)cc1 | 0.219
COc1ccc(S(=O)(=O)NC2CCCC2)c(Cl)c1Cl | -0.285
Nc1nnc(CC(=O)N/N=C/c2ccc(-c3ccccc3)o2)s1 | -0.284
O=C(/C=C/c1ccc(-c2ccccc2[N+](=O)[O-])o1)c1ccccc1 | -0.156
CCc1[nH]c(=O)c(C#N)c2c1COC(C)(C)C2 | 0.0687
CCOC(=O)c1csc(NC(=O)c2ccc(S(=O)(=O)N(CC)CC)cc2)n1 | -0.407
CCn1c(=O)[nH]c2ccccc2c1=O | 0.0176
CC1(C)CC(C)(O)N(Cc2ccccc2)C(=S)N1 (centres undefined) | 1.2
CCOC(=O)C1CCCN(Cc2nc(N)nc(Nc3ccc(Cl)cc3)n2)C1 (centres undefined) | -0.508
COc1ccc(C(=O)NCCCN2CCOCC2)cc1OC | -0.193
